Experimental findings from paper PMC5005315 are described below.

Chains of the proteins cited; added tags and fusions are not shown.
UniProt B2RLE8: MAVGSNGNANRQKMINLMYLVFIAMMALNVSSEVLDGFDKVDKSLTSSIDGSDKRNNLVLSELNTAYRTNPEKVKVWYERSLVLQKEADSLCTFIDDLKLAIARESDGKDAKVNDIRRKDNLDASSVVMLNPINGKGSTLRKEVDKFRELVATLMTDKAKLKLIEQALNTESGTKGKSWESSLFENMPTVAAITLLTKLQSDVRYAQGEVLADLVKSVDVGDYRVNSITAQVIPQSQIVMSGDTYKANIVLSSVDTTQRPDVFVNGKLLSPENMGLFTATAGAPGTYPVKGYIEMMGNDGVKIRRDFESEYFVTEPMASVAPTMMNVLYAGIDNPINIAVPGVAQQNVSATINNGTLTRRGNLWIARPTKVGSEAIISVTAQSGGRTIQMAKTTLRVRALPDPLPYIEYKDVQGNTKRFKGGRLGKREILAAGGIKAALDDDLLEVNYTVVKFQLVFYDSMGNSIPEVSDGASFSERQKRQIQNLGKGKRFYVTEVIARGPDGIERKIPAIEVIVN

Results are given in words; binding and its absence hold for the method and conditions named. For part of these data: In cells and extracts the contact can be indirect. Some binding calls cover weakened binding; strength is not graded here. For part of these data: Tags and fused reporters may be left off the sequences shown.

Experiment [1] deals with cytoplasmic domain of PorL (PorLC, amino-acids 73-309), bacterial two-hybrid fusion (Porphyromonas gingivalis ATCC33277) (UniProt B2RLE9). Briefly: two-hybrid.
Experiment [2] has as its target PorL_(CΔCt) (amino-acids 73-274), bacterial two-hybrid fusion (Porphyromonas gingivalis ATCC33277) (UniProt B2RLE9). The experiment in a line: two-hybrid.
In experiment [3] the target is T1, PorL, bacterial two-hybrid fusion (Porphyromonas gingivalis ATCC33277) (UniProt B2RLE9).
T1 sequence: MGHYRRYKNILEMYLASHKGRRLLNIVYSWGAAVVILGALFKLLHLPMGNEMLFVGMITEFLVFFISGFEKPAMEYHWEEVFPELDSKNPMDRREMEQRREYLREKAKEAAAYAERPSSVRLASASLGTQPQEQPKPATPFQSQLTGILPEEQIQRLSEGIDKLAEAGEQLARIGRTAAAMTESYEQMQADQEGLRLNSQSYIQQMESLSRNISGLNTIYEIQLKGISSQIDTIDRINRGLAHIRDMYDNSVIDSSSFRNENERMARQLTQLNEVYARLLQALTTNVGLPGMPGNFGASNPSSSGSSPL
The experiment in a line: two-hybrid.

Experiment [4] concerns the target PorM, bacterial two-hybrid fusion (Porphyromonas gingivalis ATCC33277) (UniProt B2RLE8). Briefly: two-hybrid.
Experiment [5] deals with T2, 6 x His-tagged sequence signal-less Peptidoglycan-associated lipoprotein (Pal) (E. coli) (UniProt P0A912).
T2 sequence: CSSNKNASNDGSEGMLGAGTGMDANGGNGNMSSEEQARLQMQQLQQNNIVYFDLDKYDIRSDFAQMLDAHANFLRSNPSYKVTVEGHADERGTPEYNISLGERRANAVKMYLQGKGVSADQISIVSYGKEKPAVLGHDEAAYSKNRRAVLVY
The experiment in a line: pull-down; protein-protein co-purification; purified PorX mixed with 6 x His-tagged PorYC or Pal, applied to Co2+-NTA beads (Talon) in Tris-HCl 50 mM pH 8.0, NaCl 150 mM, 25°C 45 min, washes with imidazole 10 mM; SDS-PAGE and Coomassie blue staining; both purified.

Experiment [6] deals with cytoplasmic domain of PorL (PorLC, amino-acids 73-309) produced in E. coli W3110 for co-immune-precipitation (Porphyromonas gingivalis ATCC33277) (UniProt B2RLE9). The experiment in a line: co-IP.

B1: PorX fused to the T18 domain of the Bordetella adenylate cyclase (protein, UniProt B2RJJ3 1-518)
chain: MEKNMRPYTVLWADDEIDLLKPHILFLEQKGYQVTPVLSGNDAIEALQNNDFDIVFLDENMPGIGGLDALQKIKELKPYTPVVMITKSEEEHIMTQAIGGKIADYLIKPVNPNQLLLSLKKNLQQHSIISETTNTNYRQEFVQLGAQMSGKLSFEEWKELYRRIVFWEIELEQADRQMGELLEMQKQEANRLFARFVTQNYREWIAKPDTRPTMSPDLFKQKVFPLLDNGEKVFFILIDNFRQDQWESVKSMLSEFYTFEEDMYLSILPTATQYARNAIFSGLMPLQIEKMFPDLWVDEESEEGKNLNEEPMIRTLIERYRKHYSFSYNKVYETKFGERLLGQIRSLSQNQLNVIVLNFVDMMSHARTDSKMIRELASNEAAYRSLTKSWFKHSTTYNLFRSIAEMGYKVVLTTDHGTIQVKNPVKVIGDRSTNTNLRYKIGKNLDYNPKEVFEIKDPASVGLPHNNLSDKFIFTKEDDFFAYPNNYNYYVQYYRNTFQHGGISLEEMLVPVITMQPK
For B1, the binding result in experiment [1] is listed as “binds”; in experiment [2], “no binding”; in experiment [3], “binds”; in experiment [4], “no binding”.

B2: purified untagged PorX (protein, UniProt B2RJJ3 1-518)
chain: B1 chain
In the case of B2, in experiment [5], the binding entry was “no binding”.

B3: PorX produced in E. coli W3110 for co-immune-precipitation (protein, UniProt B2RJJ3 1-518)
chain: B1 chain
For the molecule B3, the binding result in experiment [6] is given as “binds”.
